{"source": "ChEMBL document CHEMBL4888484", "about": "“Replenishing the malaria drug discovery pipeline: Screening and hit evaluation of the MMV Hit Generation Library 1 (HGL1) against asexual blood stage Plasmodium falciparum ,using a nano luciferase reporter read-out” (2022)", "note": "The whole screen tested about 150,000 compounds, of which about 540 (0.36%) showed an effect of 50% or more. This is one part of the list."}
{"test_system": "Plasmodium falciparum", "assay": "Primary screen in NF54 nanoGlo assay, in single point, at 2uM, 72h; a lower Z score goes with more inhibition", "type": "functional, Erythrocyte", "conditions": "timepoint 72 hour", "units": {"% Inhibition": "%"}}
{"smiles": "CCN(CC)C(=O)Cn1cc(C(=O)N(CCOC)C(C)C)nn1", "% Inhibition": 0, "Z score": 0.01}
{"smiles": "CCN(CC)c1onc(-c2ccccc2)c1CN(CCC(C)C)C(=O)COC", "% Inhibition": -6, "Z score": 0.6}
{"smiles": "NS(=O)(=O)[C@H]1CCN(Cc2ccccc2)C1", "% Inhibition": -18, "Z score": 1.61}
{"smiles": "c1csc(N[C@H]2CCO[C@@H]2c2cnn(CC3CC3)c2)n1", "% Inhibition": -1, "Z score": 0.12}
{"smiles": "COc1ccccc1NC(=O)C1OC2OC3(CCCCC3)OC2C2OC3(CCCCC3)OC12", "note": "(stereo not given)", "% Inhibition": 3, "Z score": -0.44}
{"smiles": "CCN(C)S(=O)(=O)c1cncc(F)c1", "% Inhibition": -8, "Z score": 1.01}
{"smiles": "NC(=O)c1cc(N)ccc1C(F)(F)F", "% Inhibition": -3, "Z score": 0.55}
{"smiles": "CCN(CC)c1ccc(CN(CCN(C)C)C(=O)CCc2ccccc2)c(OS(=O)(=O)CC)c1", "% Inhibition": -2, "Z score": 0.3}
{"smiles": "CS(=O)(=O)CC1(CN2CCC=Cc3ccccc32)CC1", "% Inhibition": -15, "Z score": 1.82}
{"smiles": "Cc1nc(Cc2csc(-c3ccccc3)n2)n(CCCO)n1", "% Inhibition": -16, "Z score": 2.86}
{"smiles": "Cc1cnc(Cn2ccnc2-c2cnc(N(C)C)s2)cn1", "% Inhibition": -13, "Z score": 1.76}
{"smiles": "Cc1nc([C@H]2CCCN(CCc3ccccc3C(=O)O)C2)sc1C", "% Inhibition": -7, "Z score": 1.01}
{"smiles": "CCc1nnc(-c2ccc(=O)n(CC(=O)Nc3cccc(C)c3)c2)o1", "% Inhibition": 3, "Z score": -0.47}
{"smiles": "Cc1ccc(C)c(S(=O)(=O)Cc2ccncc2)c1", "% Inhibition": -12, "Z score": 1.52}
{"smiles": "COc1cccc(C(=O)NC2CN(C(=O)OC(C)(C)C)CC2OC)c1", "note": "(stereo not given)", "% Inhibition": 26, "Z score": -2.89}
{"smiles": "Cc1cc(CNC(=O)c2ccccc2[C@H]2CCNC2)ccc1F", "% Inhibition": -5, "Z score": 0.97}
{"smiles": "CC(C)(C)c1ccc(C2(NC(=O)c3cn(C[C@H]4CCOC4)nn3)CCCC2)cc1", "% Inhibition": -6, "Z score": 1.13}
{"smiles": "COc1ccc(NC(=O)N2CCC3(CC2)CN(C)C[C@@H]3c2nnc(C(C)C)o2)c(OC)c1", "% Inhibition": 5, "Z score": -0.83}
{"smiles": "O=C(Nc1[nH]c(=O)ncc1F)c1coc(-c2ccccc2)n1", "% Inhibition": 80, "Z score": -14.59}
{"smiles": "COC(=O)c1ccc(F)c(NCc2ccc(N(C)C)c(F)c2)c1", "% Inhibition": -13, "Z score": 1.37}
{"smiles": "O=C(COc1ccc(Cl)cc1)N1C2CCC1CC(n1cncn1)C2", "note": "(stereo not given)", "% Inhibition": -8, "Z score": 0.91}
{"smiles": "Cc1ncc2c(c1-c1noc(-c3scc4c3CCCC4)n1)CCNC2", "% Inhibition": -3, "Z score": 0.55}
{"smiles": "Cc1cn2c(CNC[C@@]3(c4cnn(C)c4)CCCO3)c(C)nc2s1", "% Inhibition": -5, "Z score": 0.86}
{"smiles": "Fc1ccc(-c2cn(C[C@H]3CCCN(Cc4ncc[nH]4)C3)nn2)cc1", "% Inhibition": -14, "Z score": 1.97}
{"smiles": "COc1cccc(NC(=O)c2nnc(N3CCC(C)CC3)c3ccccc23)c1", "% Inhibition": -6, "Z score": 0.7}
{"smiles": "O=c1c2ccccc2ncn1C1CCN(S(=O)(=O)c2ccc(Cl)cc2)CC1", "% Inhibition": -9, "Z score": 1}
{"smiles": "CCc1nc(NCc2ccccc2F)c2onc(-c3ccc(C)cc3)c2n1", "% Inhibition": -8, "Z score": 1.12}
{"smiles": "O=C(NCc1cccnn1)N1CCC[C@]2(CC=CCC2)C1", "% Inhibition": -3, "Z score": 0.32}
{"smiles": "Cc1ccc(C(=O)[C@H](C#N)c2nnnn2-c2ccc(C)cc2)cc1", "% Inhibition": -12, "Z score": 1.35}
{"smiles": "O=C1CC(C2CCCCN2c2ncnc3c2oc2ccccc23)CN1", "note": "(stereo not given)", "% Inhibition": 2, "Z score": -0.28}
{"smiles": "O=C(c1ccccc1)N1CCN(Cc2csc(C3CCCCC3)n2)CC1", "% Inhibition": -12, "Z score": 1.53}
{"smiles": "Cc1c(C(=O)NCCc2ccccn2)cnn1[C@H]1CCS(=O)(=O)C1", "% Inhibition": 16, "Z score": -2.07}
{"smiles": "O=C(Nc1ccccc1)N1CCN(C2CC2)C[C@@H]1Cc1ccccc1", "% Inhibition": -15, "Z score": 2.28}
{"smiles": "COc1ccc(-c2c3c([nH]c(=O)c2C#N)CCCC3)c(OC)c1", "% Inhibition": -11, "Z score": 1.48}
{"smiles": "CC(=O)N1CCc2cc(CNC(=O)c3ccnn3C)ccc21", "% Inhibition": 0, "Z score": -0.04}
{"smiles": "O=C(NCc1ccccc1)[C@H]1CC(=O)N(CCN2CCOCC2)C1", "% Inhibition": 3, "Z score": -0.38}
{"smiles": "O=S(=O)(c1cccc(Br)c1)N1CCc2[nH]cnc2C1", "% Inhibition": -6, "Z score": 0.73}
{"smiles": "C=CCN=C(NCCS(=O)(=O)CC)NCc1ccc(Cl)cc1", "% Inhibition": -15, "Z score": 2.08}
{"smiles": "O=C(CN1CCCCCC1)N[C@H]1CCC[C@@H](CO)C1", "% Inhibition": -14, "Z score": 1.87}
{"smiles": "CN(C)Cc1cc(NC(=O)N[C@@]2(C)CCOc3ccccc32)ccn1", "% Inhibition": -2, "Z score": 0.26}
{"smiles": "COC(CS(=O)(=O)Nc1cnc2[nH]ccc2c1)C1CCOC1", "note": "(stereo not given)", "% Inhibition": 2, "Z score": -0.26}
{"smiles": "O=S(=O)(c1ccc(NCCc2ccccn2)cc1)N1CCOCC1", "% Inhibition": -10, "Z score": 1.72}
{"smiles": "Cn1c(C(C)(C)C)nc2cc(NC3CCC4(CC3)OCCO4)ccc21", "% Inhibition": 38, "Z score": -4.93}
{"smiles": "O=C(Nc1ccc(-c2nnc3n2CCCCCC3)cc1)c1ccco1", "% Inhibition": -15, "Z score": 3.12}
{"smiles": "C[C@H]1CCCCN1CCNC(=O)C1CCN(S(=O)(=O)c2cc(Cl)ccc2Cl)CC1", "% Inhibition": 29, "Z score": -2.94}
{"smiles": "Clc1cccc(-c2ccc(CN3CCN([C@H]4CCNC4)CC3)o2)c1", "% Inhibition": -17, "Z score": 1.55}
{"smiles": "CC(C)N(C(C)C)S(=O)(=O)c1ccc(N2CCCN(C)CC2)nc1", "% Inhibition": -2, "Z score": 0.25}
{"smiles": "CCCc1nc(-c2cc3cc(C)ccc3nc2NC2CCCC2)no1", "% Inhibition": -14, "Z score": 2.35}
{"smiles": "CC(C)(C)c1n[nH]c(O)c1Br", "% Inhibition": 9, "Z score": -1.42}
{"smiles": "COc1cccc(OCc2cn(CC(=O)NC3CCN(C(C)C)CC3)nn2)c1", "% Inhibition": -2, "Z score": 0.41}
{"smiles": "COc1cccc(CNC(=O)CCC(=O)c2ccc3c(c2)OCCO3)c1", "% Inhibition": -8, "Z score": 0.85}
{"smiles": "Cc1cccc(S(=O)(=O)N2CCO[C@@H](CN3CCOCC3)C2)c1", "% Inhibition": -5, "Z score": 0.84}
{"smiles": "Cc1noc(C)c1CNCc1ccc2c(c1)OCO2", "% Inhibition": -15, "Z score": 2.13}
{"smiles": "Cc1ccc2[nH]c(CCc3nc([C@H]4CCOC4)no3)nc2c1C", "% Inhibition": -9, "Z score": 1.51}
{"smiles": "CCOc1cc2c(cc1COC(=O)C1CCN(S(=O)(=O)c3ccc(C)cc3)CC1)O[C@@H](C)C2", "% Inhibition": 1, "Z score": -0.12}
